In all, about 340,000 compounds went through this assay and about 1,000 (0.29%) were called active. Inconclusive means that the source gave no clear call. Such entries were picked first, then a sample of the others. Cut-off read from the data, not from the text of the source: inconclusive = inhibition above about 29% without an active follow-up result; inactive = below that.
Biological target: Genome polyprotein (Dengue virus type 2 (strain 16681-PDK53)) (UniProt P29991)
Experiment: Dengue-2 NS5 methyltransferase inhibitors, primary screen, biochemical, confirmation dose response (AID 588689)
Conditions: Dengue-2 NS5 methyltransferase capping enzyme assay, at 25 µM, active compounds read high

Row | Structure (SMILES) | inhibition
1 | COCCN(CCOC)Cc1c(O)ccc2c1O/C(=C\c1ccc(C)o1)C2=O | inconclusive: 34.4%
2 | Cc1cc(C)c2cc3c(ccn3C3OC[C@H](O)[C@H](O)[C@H]3O)cc2n1 (some centres undefined) | inconclusive: 34.1%
3 | O=C(C1=NN(c2ccccc2)C2C(=O)N(c3ccccc3)C(=O)C12)c1ccccc1 (centres undefined) | inconclusive: 152%
4 | CC(C)OC(=O)c1c2c(n3ccccc13)C(=O)c1ccccc1C2=O | inconclusive: 49.4%
5 | Cc1ccc(CNC(=O)C(C(=O)NCc2ccc(C)o2)c2ncc(C(F)(F)F)cc2Cl)o1 | inactive: -13.8%
6 | COc1ccc(CCNC(=O)c2ccc3nc(-c4ccco4)c(-c4ccco4)nc3c2)cc1OC | inconclusive: 80.6%
7 | O=C1c2ccccc2-c2onc3ccc(N4CCCC4)c1c23 | inconclusive: 193%
8 | COC(=O)c1ccccc1NC1=C/C(=N\S(=O)(=O)c2ccc(C(=O)O)cc2)c2ccccc2C1=O | inconclusive: 101%
9 | N=c1c(C(=O)NCC2CCCO2)cc2c(=O)n3ccccc3nc2n1Cc1cccnc1 (centres undefined) | inconclusive: 32.1%
10 | O=C(CCl)N1c2ccccc2Oc2ccc3ccccc3c21 | inconclusive: 78.3%
11 | Cc1ccc(C(=O)N/C(=C\c2ccc(-c3ccc([N+](=O)[O-])cc3)o2)C(=O)NC2CCS(=O)(=O)C2)cc1 (centres undefined) | inconclusive: 46.5%
12 | CC(C)c1ccc(C2CC(=O)N3CN(C)CSC3=C2C#N)cc1 (centres undefined) | inconclusive: 32%
13 | O=C(NC1CCCCC1)c1cccc2c1C(=O)c1ccc(N3CCCC3)cc1S2(=O)=O | inconclusive: 84.3%
14 | Cc1cc2cc(CNC(=O)Nc3ccc(Cl)c(Cl)c3)ccc2n1C | inconclusive: 31.1%
15 | CCCCn1c(N)c(N(C)C(=O)c2cn(-c3ccccc3)nc2-c2ccccc2)c(=O)[nH]c1=O | inactive: -2.61%
16 | COC(=O)c1ccc(NC(=O)c2nc(S(=O)(=O)Cc3cccc(C)c3)ncc2Cl)cc1 | inactive: -59.7%
17 | CN1C(=O)c2cccc3c(N)ccc(c23)C1=O | inconclusive: 172%
18 | Nc1nc(N)c(N=Nc2ccc(C(=O)O)cc2)c(N)n1 | inactive: 0.65%
19 | O=C(O)CCCN1C(=O)/C(=C/c2ccc(-c3nc4ccccc4s3)o2)SC1=S | inconclusive: 91.7%
20 | O=C1[C@H]2[C@@H](c3ccccc3)N[C@]3(CCCN(Cc4ccc(Cl)cc4)C3=O)[C@H]2C(=O)N1Cc1ccccc1 | inactive: -4.41%
21 | C/C(CC(C)C)=N/Nc1ccc([N+](=O)[O-])cc1[N+](=O)[O-] | inactive: -3.83%

Row | Structure (SMILES) | inhibition
22 | CC1CCN(S(=O)(=O)c2ccc3[nH]c(=O)[nH]c3c2)CC1 | inactive: -10.8%
23 | O=c1c(-c2ccccc2)c(O)c2c(n1-c1ccccc1)CCCC2 | inactive: -3.21%
24 | CCOc1cc(Br)c(Br)c(C=Nc2ccc(NC(C)=O)cc2)c1O | inconclusive: 36.2%
25 | O=C(O)c1cccc(N2C(=O)/C(=C/c3ccc([N+](=O)[O-])cc3)C=C2c2ccccc2)c1 | inconclusive: 60.1%
26 | CCC1CN2CCc3cc(OC)c(OC)cc3C2CC1CC1c2cc(OC)c(OC)cc2CCN1C(=O)C(Cc1c[nH]c2ccccc12)NC(=O)OC(C)(C)C (centres undefined) | inconclusive: 30.6%
27 | COc1cc([C@@H]2[C@H]3CN(C)CC=C3C(C#N)=C(N)C2(C#N)C#N)cc2c1OCO2 | inconclusive: 28.7%
28 | O=C(Nc1ccc2c(c1)OCO2)N1CCN(Cc2ccco2)CC1 | inactive: 0%
29 | Cc1ccc(NC(=O)c2ccc(NCC3CCCO3)c([N+](=O)[O-])c2)cc1Cl (centres undefined) | inconclusive: 30.7%
30 | CC(=O)Oc1ccc(N(C(C)=O)S(=O)(=O)c2ccccc2)c2ccccc12 | inactive: 6.04%
31 | Cc1nc(S/C(=C/c2ccc(-c3cc(Cl)ccc3C)o2)C(=O)O)n[nH]1 | inconclusive: 31.3%
32 | c1cc2c3c(cccc3c1)C(N1CCCCC1)=N2 | inconclusive: 29%
33 | CCOCCCn1c(=N)c(S(=O)(=O)c2ccc(C)cc2)cc2c(=O)n3cc(C)ccc3nc21 | inconclusive: 45%
34 | CCOc1ccc(NC(=O)C2C3C=CC4(CN(C(C(=O)OC)C(C)C)C(=O)C24)O3)cc1 (centres undefined) | inconclusive: 61.1%
35 | COc1ccc(N=Nc2nc3ccc(Br)cc3n2C)cc1 | inconclusive: 139%
36 | CCOC(=O)c1cc2n(c1/N=C/N(C)C)-c1ccccc1C2=O | inconclusive: 81.6%
37 | Cc1cc(N2C(=O)C(O)=C(C(=O)c3ccco3)C2c2cccc(O)c2)no1 (centres undefined) | inactive: -4.44%
38 | Cn1cccc1/C=C1/SC(=S)N(CC(=O)O)C1=O | inactive: 3.63%
39 | O=C(NN=C1CCCC1)c1ccc(Cl)cc1 | inactive: -2.6%
40 | Cc1cc(C(=O)COc2cccc3cccnc23)c(C)n1C | inconclusive: 108%
41 | NC(=O)Cn1c(O)c(N=NC(=O)CNC(=O)/C=C/c2ccccc2)c2ccccc21 | inactive: 3.88%
42 | O=C(Oc1ccc(Br)cc1C(=S)N1CCCCC1)c1cc([N+](=O)[O-])cc([N+](=O)[O-])c1 | inconclusive: 34%

Row | Structure (SMILES) | inhibition
43 | O=c1oc(/C=C/c2ccccc2)nc2sc3c(c12)CCC3 | inconclusive: 61.8%
44 | N#CC(C(=O)OC1CCCCC1)c1nc2ccccc2nc1N1CCOCC1 (centres undefined) | inconclusive: 120%
45 | N#Cc1c(NC(=O)CSc2ncn[nH]2)sc2c1CCCC2 | inconclusive: 31.2%
46 | Cc1ccc(/C=C2/NC(=O)N(Cc3ccccc3F)C2=O)s1 | inconclusive: 37.3%
47 | CC(=O)c1cc2c(cc1NS(=O)(=O)c1ccccc1F)OCO2 | inconclusive: 33.8%
48 | CC1(C)CCN2CCC(C)(C)c3c(O)ccc1c32 | inconclusive: 142%
49 | COc1ccc(C2=CC(c3ccc(F)cc3)n3nnnc3N2)cc1 (centres undefined) | inconclusive: 69%
50 | COc1cccc(C2=CC(c3cccs3)n3nnnc3N2)c1 (centres undefined) | inconclusive: 28.6%
51 | COC(=O)c1c(NC(=O)CC2Nc3cc(C)c(C)cc3NC2=O)sc(C)c1C (centres undefined) | inconclusive: 53.3%
52 | O=C(C1=C(O)C(=O)N(c2nccs2)C1c1ccccc1)c1cc2ccccc2o1 (centres undefined) | inconclusive: 46.4%
53 | COC(=O)c1ccccc1C(=O)N1CCC(CCC(=O)NC2CC2)CC1 | inactive: -9.72%
54 | CC(=O)Nc1sc2c(c1-c1nc3ccccc3s1)CN(C(C)C)CC2 | inconclusive: 165%
55 | c1ccc2c(c1)CCCN2Cc1nnc2n1CCCCC2 | inconclusive: 72.5%
56 | CCN(CC)c1ccc(/C=C/C(=O)c2ccc(Br)cc2)cc1 | inconclusive: 152%
57 | Cc1ccc(NC(=O)c2ccccc2NS(=O)(=O)c2ccc(Cl)s2)cc1 | inactive: -0.66%
58 | COc1ccc(C(=O)C(C)[n+]2ccc(C)c3ccccc32)cc1[N+](=O)[O-] (centres undefined) | inconclusive: 70.6%
59 | S=C(NCc1ccco1)Nc1ccc(Br)cn1 | inactive: -6.51%
60 | COC(=O)CCC(=O)OC1(C)C(=O)C2=CN(Cc3ccc(OC)cc3)C(c3ccc(OC)cc3)=CC2=C(Br)C1=O (centres undefined) | inactive: 17.2%
61 | COc1ccc(S(=O)(=O)Nc2c(C(=O)O)[nH]c3ccccc23)cc1OC | inactive: 1.6%
62 | COCCN(C(=O)CN1CCCc2ccccc21)c1c(N)n(Cc2ccccc2)c(=O)[nH]c1=O | inconclusive: 33.4%
63 | CC(C)C(=O)Nc1ccc(-c2nc3cccnc3o2)cc1 | inconclusive: 157%

Row | Structure (SMILES) | inhibition
64 | COc1ccc(-n2cccc2/C=C2\C(=N)N3N=C(c4ccco4)SC3=NC2=O)cc1 | inconclusive: 57.4%
65 | COc1ccc(N(CC(=O)NCCSC2CCCCC2)S(=O)(=O)c2ccc(C)cc2)cc1 | inactive: -4.51%
66 | O=C(NN1C(=O)/C(=C/c2cccs2)SC1=S)c1ccncc1 | inactive: -4.6%
67 | CCOc1cc(/C=C2\SC(=S)N(NS(=O)(=O)c3ccc(C)cc3)C2=O)ccc1O | inconclusive: 50.5%
68 | CC(=O)Nc1ccc(N2C(=O)c3cccc4c(O)ccc(c34)C2=O)cc1 | inconclusive: 172%
69 | CCN(CC)CCN1C(=O)C(=O)/C(=C(/O)c2ccc(S(=O)(=O)N3CCOCC3)cc2)C1c1ccc(Cl)cc1 (centres undefined) | inactive: -6.64%
70 | O=C(CN1C(=O)S/C(=C\c2cccs2)C1=O)Nc1ccc(C(=O)O)c(O)c1 | inactive: 15%
71 | CCOc1cc(/C=C2/C(=O)N(c3ccccc3)N=C2C)ccc1OC(=O)c1ccco1 | inactive: 19.1%
72 | Cc1cccc2cc3c(N)c(C#N)sc3nc12 | inconclusive: 32.4%
73 | COc1cc(OC)c(N2CC(C(=O)NCCC3=CCCCC3)CC2=O)cc1Cl (centres undefined) | inactive: -2.95%
74 | CCOc1c(Br)cc(CNc2ccc(N3CCOCC3)cc2)cc1OC | inactive: 70.4%
75 | COc1ccc(-n2c3c(cc(C(=O)NC4CCSC4=O)c2=O)C(=O)CC(C)(C)C3)cc1 (centres undefined) | inactive: 3.46%
76 | CN1CCS/C1=C/C=C1/SC(=S)N(Cc2ccccc2)C1=O | inconclusive: 85.1%
77 | N=c1c(C(=O)NC2CCCC2)cc2c(=O)n3ccccc3nc2n1Cc1ccccc1 | inconclusive: 60.3%
78 | COc1ccc(C(=O)/C=C/Nc2ccc([N+](=O)[O-])cc2C)c(OC)c1 | inconclusive: 59.7%
79 | CCc1ccc(/C=C2\SC(=S)N(CCCC(=O)Nc3ccccn3)C2=O)cc1 | inconclusive: 50.8%
80 | Cc1cc2cc(CN3C(=O)c4ccccc4C3=O)ccc2n1C | inconclusive: 51.7%
81 | O=C(NCc1ccco1)c1ccc(CS(=O)Cc2cccc(Cl)c2)o1 (centres undefined) | inactive: 2.71%
82 | c1ccc(Nc2ccc3c4c(cccc24)CC3)cc1 | inconclusive: 168%
83 | COc1ccc(-c2onc3ccc(C(C)=O)cc23)cc1 | inconclusive: 79.1%
84 | CCN1/C(=C/C=C/c2oc3ccc(-c4ccccc4)cc3[n+]2CC)Oc2ccc(-c3ccccc3)cc21 | inconclusive: 151%
